Measurements reported in PubChem BioAssay AID1508624 (National Center for Advancing Translational Sciences (NCATS), 2021).
Out of some 48,000 compounds screened, about 120 (0.25%) were called active. Not shown: some 4% with an inconclusive outcome. Calls come from the whole dose curve; as a rule, active = well fitted activation curve with a large enough effect; inconclusive = small, poorly fitted or top-dose-only effect, or another doubt; inactive = no such curve, though single readings can be large or run the other way. Some of the results follow.

Assay: Primary qHTS for Identification of Small Molecule Activators of Huntingtin-Antisense Promoter Activity; note: nearly all actives have a fitted effect of over 55% in size
Details: HEK293 HTT-AS promoter firefly luciferase reporter, 24 h; series mostly up to 57.5 µM; activity change, positive = activation: at the top concentration
Method in brief: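 Luminescence was read after Dual-Glo reagent and a 10 min room-temperature incubation. Values were normalized to vehicle (0% activity) and zero RLU (-100% activity). Reporter HEK293 cells had been exposed to compounds (up to 57.5 uM final) for 24 h.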

Activity change, positive = activation, inactive:
CC(=O)Oc1ccc(C(c2ccc(OC(C)=O)cc2)c2ccccn2)cc1 -40.3%, CCN(C(=O)Cn1c(SCC(=O)NCc2ccccc2)nc2ccccc21)c1cccc(C)c1 -21.6%, O=C(NCc1ccccc1Cl)c1cnc(N2CCCCC2)c2ccccc12 -10.4%, COc1ccc(-c2cc3ccc(O)c(CN4CCN(CCO)CC4)c3oc2=O)cc1OC -13.9%, Cc1cccn2c(Nc3ccc4c(c3)OCCO4)c(-c3ccc(Br)o3)nc12 18.3%, O=C(Nc1cccc(Cl)c1Cl)c1cc2nc(-c3ccc4c(c3)OCO4)cc(C(F)(F)F)n2n1 -13.3% [at 11.5 µM, percent change from vehicle, -100% = no light], COc1ccc(OC)c(CNC(=O)c2cc(-c3ccc(Cl)s3)nc3ccccc23)c1 -15.7%, COc1cc(-c2nc3n(n2)C(c2ccc(F)cc2)C(C(N)=O)=C(C)N3)cc(OC)c1OC (configuration not stated) -2.21%, Cc1ccc(-n2nc(C(=O)NCCc3cccc(C)c3)c3c4ccccc4n(C)c3c2=O)cc1 9.4%, COc1ccccc1NC(=O)c1oc2ccccc2c1NC(=O)c1ccc(S(=O)(=O)N(C)C)cc1 26.9%, Cc1ccc(CNC(=O)c2cc(C3CC3)nc3c2c(C)nn3-c2cccc(Cl)c2C)cc1 -3.93%, Cc1ccc(NC(=O)c2nc(S(=O)(=O)Cc3cccc(C)c3)ncc2Cl)cc1 -52.1%, CCCN(CCC)C(=O)c1c[nH]c2ccc(S(=O)(=O)Nc3cc(C)cc(C)c3)cc2c1=O -21.1%, COc1cc(OC)c(NC(=O)c2cc3c(s2)-c2ccc(Cl)cc2SC3)cc1Cl 26.4%, Cc1cccc(N2CCN(C(=O)C3CCN(Cc4nc(-c5ccc(Cl)cc5)oc4C)CC3)CC2)c1C -9.24%, Cc1cc(NC(=O)C2CCC(CNS(=O)(=O)c3ccc(Br)s3)CC2)ccc1Br (configuration not stated) -17.1%, N=c1nc(N2CCCCC2)cc(N)n1O, CCc1nn2c(-c3ccco3)ccnc2c1-c1ccccc1 16%, CCOC(=O)c1cc(S(=O)(=O)Nc2ccc(OC(F)(F)F)cc2)[nH]n1 -20.9%, CCC1CN(C(=O)N2CCC(C(=O)NCc3cc(OC)ccc3OC)CC2)c2ccccc2O1 (configuration not stated) -28.5%, Cn1c(C(=O)NCc2ccc(F)cc2)cc2cc(S(=O)(=O)N3CCCCC3)ccc21 -35%, COc1ccc(NC(=O)CSc2nc(-c3ccc(OC)cc3)cc(=O)[nH]2)cc1 11.9%, CC(=O)OCC(=O)Nc1cc(C#N)cc(NC(=O)COC(C)=O)c1Cl -4.09%, COc1ccc(NC(=O)Cn2c(=O)n(Cc3nc(C)no3)c(=O)c3cc4c(cc32)OCO4)cc1 -12.3%, COc1ccc(NC(=O)c2cc3c(=O)n(Cc4cccs4)ccc3nc2C)c(OC)c1 -6.19%, Cc1cc(C)cc(NS(=O)(=O)c2ccc(-c3cc(C)no3)s2)c1 -40.8%, Cc1cc(C)c(NC(=O)C2CCN(C(=O)N3CC(C)Oc4ccc(Cl)cc43)CC2)c(C)c1 (configuration not stated) -27.3%, Cc1ccc(-c2nc3cc(Cl)ccc3o2)cc1NC(=O)c1cc2ccccc2o1 20%, Cc1c(C(=O)N(C)C)sc2c1c(=O)n(-c1ccccc1C(F)(F)F)c(=O)n2Cc1ccccc1C#N -14.6%, CC(C)Cc1nn2c(=O)cc(COC(=O)c3cccc(NC(=O)c4cccs4)c3)nc2s1 1.81%, COc1ccc(-c2nsc(NC(=O)COc3ccccc3OC)n2)cc1 -0.766%, Cc1ccccc1Cn1c(=O)n(CC2CCC(C(=O)N3CCC(C)CC3)CC2)c(=O)c2sccc21 (configuration not stated) -44.1%, COc1ccccc1CNC(=O)CCCn1c(=O)c2ccccc2n(CC(=O)Nc2ccc(C)cc2Cl)c1=O -37.6%, CC(C)c1cnn2c(NCc3ccccc3)cc(NCCCCCCN)nc12 -22.9%, Cc1c(Cl)cccc1NC(=O)c1cc(-c2cccs2)on1 10.5%, CCOC(=O)c1c(C)[nH]c(C)c1S(=O)(=O)N(C)CC(=O)Nc1cccc(Cl)c1C -6.44%, Cc1c(C(=O)N2CCC(C)CC2)c(S(=O)(=O)Nc2cccc(C#N)c2)c(C)n1C -7.25%, Cc1ccc(NCc2cccn2-c2nnc(N3CCC(C(=O)NCc4ccccc4C)CC3)s2)cc1 -25%, COc1ccc(CN2CCCN(CC(=O)Nc3ccc(Br)cc3F)S2(=O)=O)cc1 -5.05%, Cc1ccc(-n2ncc(C(=O)NCc3ccc4c(c3)OCO4)c2C2CCN(C(=O)OC(C)(C)C)CC2)cc1C -40.5%, CCOc1ccc(NC(=O)CC2Nc3cccc4cccc(c34)NC2=O)cc1 (configuration not stated) -21.3%, COc1ccc(C(=O)N2CCCCC2CCN2CCOCC2)cc1 (configuration not stated) -4.96%, CC1=C(c2ccc(C)c(C)c2)S(=O)(=O)N=C1N1CCN(c2cccc(C)c2)C(C)C1 (configuration not stated) -18.8%, CCOC(=O)c1ccc(NC(=O)C2=C(C)C(=O)OC23CCCCCC3)cc1 -25.6%, CC(C)Sc1ncc(Cl)c(C(=O)Nc2nc3ccc(S(C)(=O)=O)cc3s2)n1 -7.45%, Cc1cc(-c2ccc(S(=O)(=O)Nc3cccc(C(F)(F)F)c3)s2)on1 -33.9%, O=C(c1ccccc1Cl)N1CCCC(c2nc3c(nnn3Cc3ccc(F)cc3F)c(=O)[nH]2)C1 (configuration not stated) -23.5%, CN(C(=O)CSc1nc2ccc(NC(=O)COc3ccc(F)cc3)cc2s1)c1ccccc1 -41.5%, Cc1cccc(NC(=O)CSc2ncc3c(n2)-c2cc(Cl)ccc2N(C)S3(=O)=O)c1C -9.15%, CC(C)c1ccc(Nc2cc(C(=O)NCCCN(C)Cc3ccccc3)c3ccccc3n2)cc1 -17.7%, CC(=O)N1CCN(C(=O)C(=O)Nc2c3c(nn2-c2ccc(Cl)cc2)CSC3)CC1 -9.96%, COC(=O)c1ccc(C2c3c(-c4ccc(Br)cc4)n[nH]c3C(=O)N2c2ccc(Cl)cc2)cc1 (configuration not stated) -50.1%, CCOc1ccc2c(c1)c(=O)c(S(=O)(=O)c1ccc(CC)cc1)cn2CC -18.7%, CCc1ccc(OCC(=O)Nc2cc3oc4ccccc4c3cc2OC)c(Br)c1 3.6% [at 11.5 µM, percent change from vehicle, -100% = no light], CCOc1ccccc1-c1noc(CSc2nnc(-c3ccncc3)n2-c2ccc(F)cc2)n1 -32.4%, O=C(COc1ccccc1)Nc1c(C(=O)N2CCN(c3ccc(F)cc3)CC2)oc2ccccc12 -7.21%, Cn1c(=O)n(Cc2ccccc2Cl)c(=O)c2c1nc1n2CCN1c1ccccc1 -17.6%
